# Results as given in PubChem BioAssay AID1030 (National Center for Advancing Translational Sciences (NCATS), 2008).
# Where “and” joins values, the source holds several entries; their conditions need not be identical. Identical values can stand only once. The whole screen tested about 220,000 compounds, of which about 16,000 (7.3%) were called active. Inconclusive results, whose numbers are uncertain, are shown with a selection of clear calls. The call rests on the fitted dose curve; in most records, active means well fitted inhibition curve with a large enough effect (not every such curve was filed as active); inconclusive means small, poorly fitted or top-dose-only effect, or another doubt; inactive means no such curve, though single readings can be large or run the other way. Potencies of inconclusive entries are left out as doubtful fits.
# Molecular target: Aldehyde dehydrogenase 1A1 (Homo sapiens) (UniProt P00352)
# Experiment: qHTS Assay for Inhibitors of Aldehyde Dehydrogenase 1 (ALDH1A1);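 on activity, negative = inhibition: plate controls were no enzyme wells and a reference inhibitor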
# Settings: Purified ALDH1A1, NADH fluorescence, propionaldehyde substrate; series mostly up to 75.3 µM
# Potency means the concentration at half of the fitted maximal effect; tags describe the fitted curve by direction and shape.
# Sequence of UniProt P00352 (P00352 whole entry, looked up): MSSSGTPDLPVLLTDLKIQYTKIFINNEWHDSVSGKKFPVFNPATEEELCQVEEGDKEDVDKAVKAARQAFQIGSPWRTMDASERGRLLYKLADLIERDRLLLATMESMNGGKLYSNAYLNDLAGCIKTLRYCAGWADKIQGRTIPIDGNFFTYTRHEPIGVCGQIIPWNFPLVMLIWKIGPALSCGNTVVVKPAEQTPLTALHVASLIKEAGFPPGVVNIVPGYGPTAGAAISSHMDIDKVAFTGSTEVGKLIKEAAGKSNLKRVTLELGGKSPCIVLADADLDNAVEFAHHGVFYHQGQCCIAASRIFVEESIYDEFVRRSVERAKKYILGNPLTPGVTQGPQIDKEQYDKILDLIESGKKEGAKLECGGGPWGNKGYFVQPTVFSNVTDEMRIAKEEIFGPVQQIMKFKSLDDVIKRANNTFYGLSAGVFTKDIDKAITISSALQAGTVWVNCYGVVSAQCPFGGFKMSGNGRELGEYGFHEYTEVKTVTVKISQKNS
SMILES,Potency,"activity, negative = inhibition"
COc1cccc(/C=N/n2c(-c3cc(C)[nH]n3)n[nH]c2=S)c1O,inactive,–
O=C(CN(Cc1ccco1)C(=O)CNS(=O)(=O)c1ccccc1)NCc1ccccc1,active: 14.1 µM,–
CCN(CC)C(=O)Cn1nnc(-c2ccc(C)o2)n1,active: 25.1 µM,–
Nc1ccc2c(C(F)(F)F)cc(=O)oc2c1,"inconclusive [inhibitor, partial curve]",–
NC(=O)C1CCN(c2ncc(C(F)(F)F)cc2Cl)CC1,inactive,–
Cc1c(C(=O)NCCSCc2ccccc2Cl)cccc1[N+](=O)[O-],"inconclusive [inhibitor, single point]",–
O=C(CCCC(=O)OCC(=O)c1ccc(Cl)cc1Cl)Nc1cc(C(F)(F)F)ccc1Cl,"inconclusive [inhibitor, single point]",–
CN(Cc1ccco1)c1cc(-c2cccnc2)ncn1,"inconclusive [inhibitor, partial curve]",–
O=C(Nc1nc2ccc(F)cc2s1)c1ccccn1,inactive,–
CC(=O)N=c1c(C#N)cc2c(=O)n3cccc(C)c3nc2n1CC(C)C,"inconclusive [inhibitor, partial curve]",–
O=C(NN=C1C2CC3CC1CC(Cl)(C3)C2)c1ccccn1,"inconclusive [inhibitor, single point]",–
COc1ccc(C(=O)C2CCCN(Cc3ccc4nonc4c3)C2)c(OC)c1 (stereo not given),"inconclusive [inhibitor, single point]",–
CC(=O)c1cccc(CN2CCC(CO)(CCCc3ccccc3)CC2)c1,"inconclusive [inhibitor, single point]",–
CCn1c(C)nc2cc(C(=O)NNC(=O)Nc3ccc(Cl)cc3)ccc21,"inconclusive [inhibitor, single point]",–
O=C(CC1C(=O)CCCC1=O)c1ccccc1,active: 8.91 µM,–
C[C@H]1[C@@H](O)[C@@H](C)\C=C/C=C\C=C/C=C\C=C/C=C\C=C/[C@@H](O[C@H]2O[C@@H](C)[C@@H](O)[C@@H](N)[C@@H]2O)C[C@@H]2O[C@](O)(C[C@@H](O)C[C@@H](O)[C@@H](O)CC[C@@H](O)C[C@@H](O)CC(=O)O[C@H]1C)C[C@@H](O)[C@H]2C(=O)O (stereo in doubt),"inconclusive [inhibitor, partial curve]",–
c1ccc(CCN2CCN(c3ncnc4c3cnn4-c3ccccc3)CC2)cc1,active: 28.2 µM,–
COC(=O)c1ccccc1NC(=O)CNc1cc(OC)c(OC)cc1C,active: 10 µM,–
COc1ccc(-c2cn3cc(C)ccc3n2)cc1F,"inconclusive [inhibitor, single point]",–
Cc1cc(C(C)C)n2c(nc3ccccc32)c1C#N,inactive,–
COc1cc(NC(=O)c2ccccc2-c2ccccc2)cc(OC)c1,inactive,–
COc1cccc(/C=C/C(=O)OCC(=O)Nc2ccc(S(=O)(=O)N3CCCC3)cc2)c1,active: 7.08 µM,–
Cc1cc(C)nc(SCC(=O)c2ccc3c(c2)OCCO3)n1,inactive,–
Cc1cc(-c2nnc(-c3cc4ccccc4oc3=O)o2)c(C)n1-c1ccccc1,"inconclusive [inhibitor, single point]",–
CCCCCn1c(=O)c(C(=O)OCC)c(O)c2ccccc21,"inconclusive [inhibitor, single point]",–

SMILES,Potency,"activity, negative = inhibition"
COc1cccc(NC(=S)NNC(=O)C(C)n2nc(C)c([N+](=O)[O-])c2C)c1 (stereo not given),inactive,–
Cc1cccc(NC(=O)c2oc3c(c2C)C(=O)CC(C)(C)C3)n1,inactive,–
COc1ccc(-c2cn3c(C)c(C(=O)Nc4ccncc4)sc3n2)cc1,"inconclusive [inhibitor, partial curve]",–
CN1CCN(c2ncc3nc(-c4cccc(C#N)c4)c(=O)n(CCc4ccccc4)c3n2)CC1,"inconclusive [inhibitor, single point]",–
CCS(=O)(=O)n1nc(-c2ccccc2)nc1SC,inactive,–
c1ccc(CN2CCOCC2)cc1,inactive,–
Cc1cc(C2C(C#N)=C(N)SC(N)=C2C#N)c(C)s1,active: 25.1 µM,–
S=C(Nc1ccccc1)Nc1nc2ccccc2n1CCOc1ccc(Br)cc1,active: 9.46 µM,–
Cc1nc2c(C)cccc2cc1C(=O)N/N=C/c1ccc(C(=O)O)cc1,inactive,–
Nc1c(S(=O)(=O)O)cc(Nc2cccc(S(N)(=O)=O)c2)c2c1C(=O)c1ccccc1C2=O,"inconclusive [inhibitor, single point]",–
C/C(=N\NC(N)=S)c1ccc2c(c1)OCCO2,inactive,–
C=CCOC(=O)C1=C(C)N=C2SCCC(=O)N2C1c1ccc(OC(=O)c2ccco2)cc1 (stereo not given),active: 20 µM,–
CC(=O)N(CC(=O)Nc1nn(-c2ccccc2)nc1C(N)=O)Cc1ccccc1,"inconclusive [inhibitor, single point]",–
CN(C)/C=C/C(=O)/C=C/c1cn(-c2ncc(C(F)(F)F)cc2Cl)c2ccccc12,inactive,–
Cc1cccc(C)c1N(CC(=O)Nc1cccc(N(C)S(C)(=O)=O)c1)S(C)(=O)=O,active: 22.4 µM,–
Cc1cccc(NC(=O)Cn2c(=O)n(Cc3ccco3)c(=N)c3c4c(sc32)COC(C)(C)C4)c1,"inconclusive [inhibitor, single point]",–
Cc1ccccc1N1C(=O)C(Cl)=C(N2CCCCCC2)C1=O,"inconclusive [inhibitor, single point]",–
CCCCN(CCCC)S(=O)(=O)c1ccc(NC(=O)Cc2cccs2)cc1,"inconclusive [inhibitor, single point]",–
CCOC(=O)C(=O)/C(C#N)=C/Nc1ccc(F)cc1,active: 28.2 µM,–
COc1cc(CCC(=O)OCC(=O)NCC2CCCCC2)cc(OC)c1OC,"inconclusive [inhibitor, single point]",–
CCN(CC)CCCCC1CCN(CC(=O)N2c3ccccc3C(=O)Nc3cccnc32)CC1,inactive,–
COc1ccc(C2N(c3cc(C)on3)C(=O)C3CCCN32)cc1OC (stereo not given),"inconclusive [inhibitor, single point]",–
O=C1CC(N(O)C2CC(=O)N(Cc3ccccc3)C2=O)C(=O)N1Cc1ccccc1 (stereo not given),active: 7.08 µM,–
C=CCn1c(SCC(N)=O)nnc1-c1cccc(Br)c1,inactive,–
CCCC1CCC(=C(C#N)C(N)=O)CC1 (stereo not given),inactive,–

SMILES,Potency,"activity, negative = inhibition"
CCSc1nnc(-c2cccs2)o1,inactive,–
CC(C)C1Cc2c(sc3[nH]c(=S)n(Cc4ccccc4)c(=O)c23)CO1 (stereo not given),inactive,–
Cn1nc(C(F)(F)F)c(C#N)c1N1CCN(c2ccc(F)cc2)CC1,inactive,–
CCC(C)(C)n1nnnc1C(c1ccc(C)cc1)N1CCN(C(=O)c2ccco2)CC1 (stereo not given),inactive,–
CN(C)c1ccc(/C=C2\N=C(c3ccc(Cl)c([N+](=O)[O-])c3)NC2=O)cc1,"inconclusive [inhibitor, single point]",–
CC(Oc1ccc(Cl)cc1Cl)C(=O)NN=C1CCN(C)CC1 (stereo not given),active: 2.51 µM,–
CCN1C=CC2=C(C#N)C(N)C(C#N)(C#N)C(c3ccccc3C(F)(F)F)C2C1 (stereo not given),"inconclusive [inhibitor, single point]",–
CCOc1cccc(CN2CCCC(C(=O)c3cccc(C(F)(F)F)c3)C2)c1O (stereo not given),"inconclusive [inhibitor, single point]",–
CCn1c(=O)cc(SCC(=O)Nc2ccc(OC)c(OC)c2)c2ccccc21,"inconclusive [inhibitor, single point]",–
CCN(CC)CC(=O)NCc1cc(-c2ccc(OC)cc2)no1,inactive,–
Cc1cccc(-n2cc(CN3CCN(c4ccccn4)CC3)c(-c3cccc(F)c3)n2)c1,"inconclusive [inhibitor, single point]",–
C=CCOC(=O)/C=C/NC(=O)/C=C/C=C/CCCCCCCC(C)O (stereo not given),–,inactive: 9.87% [at 13.5 µM] and inactive: -4.52% [at 13.5 µM]
O=C(CN1CCNCC1)Nc1ccccc1Cl,inactive,–
Cc1cccc(NC(=S)NC2CCCC2)n1,"inconclusive [inhibitor, partial curve]",–
CS(=O)(=O)N(Cc1ccc(F)cc1)Cc1nc2ccccc2c(=O)[nH]1,active: 25.1 µM,–
CC(=O)N1CCC2(CC1)CCN(c1ncccn1)CC2,inactive,–
O=S(=O)(C=C(c1ccccc1)c1ccccc1)c1ccccc1,"inconclusive [inhibitor, single point]",–
CC(=O)Nc1ccc(N=Cc2c(O)c(C(=O)Nc3ccccc3)cc3ccccc23)cc1,inactive,–
CCN1C(=O)/C(=C/N2CC(C)CC(C)C2)SC1=S (stereo not given),"inconclusive [inhibitor, full curve]",–
Cc1cc(C(=O)CCl)c(C)n1-c1c(C)n(C)n(-c2ccccc2)c1=O,active: 12.6 µM,–
COC(=O)[C@H]1C(OC)[C@@H](OC(=O)c2cc(OC)c(OC)c(OC)c2)C[C@@H]2CN3CCc4c([nH]c5cc(OC)ccc45)[C@H]3C[C@H]21 (stereo not given in full),"inconclusive [inhibitor, single point]",–
O=C(Nc1ccccc1-c1ccccc1)c1ccc(NC(=O)c2ccco2)cc1,"inconclusive [inhibitor, single point]",–
COc1ccc2nc(NC(=O)CN(c3ccc(C)cc3)S(=O)(=O)c3c(C)nn(C)c3C)sc2c1,inactive,–
COc1cccc(-c2csc(N3CCN(CC(=O)NNC(=O)c4ccc(Br)cc4)CC3)n2)c1,"inconclusive [inhibitor, single point]",–
CCOC(=O)/C(C#N)=C/c1cccc(F)c1,inactive,–
